Data reported in patent US6784201B2, “Benzothiepines having activity as inhibitors of ileal bile acid transport and taurocholate uptake” (G.D. Searle & Company, priority 1994, dated 2004).
Several values for one entry are separate records, joined by “and”; a condition that tells them apart may be missing. Equal values may be shown once. Where a name gives a salt, the structure may show the parent alone. The name of at least one read-out is uncertain.

Test system: fecal bile acid (FBA)
Assay: Rat gavage assay (fecal bile acid increase)
Format: in vivo
Method: Male Wister rats (275-300 g) are administered IBAT inhibitors using an oral gavage procedure. Drug or vehicle (0.2% Tween 80 in water) is administered once a day (9:00-10:0 a.m.) for 4 days at varying dosages in a final volume of 2 mL per kilogram of body weight. Total fecal samples are collected during the final 48 hours of the treatment period and analyzed for bile acid content using an enzymatic assay as described below. Compound efficacy is determined by comparison of the increase in fecal bile acid (FBA) concentration in treated rats to the mean FBA concentration of rats in the vehicle group.
Measurement of Fecal Bile Acid Concentration (FBA)
Total fecal output from individually housed hamsters was collected for 24 or 48 hours, dried under a stream of nitrogen, pulverized and weighed. Approximately 0.1 gram was weighed out and extracted into an organic solvent (butanol/water). Following separation and drying, the residue was dissolved in methanol and the amount of bile acid present was measured enzymatically using the 3α-hydroxysteroid steroid dehydrogenase reaction with bile acids to reduce NAD. (Reference: Mashige, F., et al. (1981) Clin. Chem. 27, 1352).

| Compound | Delta (micromoles fecal bile acid per day) (dose 2 mg/kg/day) | Delta (micromoles fecal bile acid per day) (dose .08 mg/kg/day) | Delta (micromoles fecal bile acid per day) (dose .4 mg/kg/day) | Delta (micromoles fecal bile acid per day) (dose .016 mg/kg/day) |
| --- | --- | --- | --- | --- |
| CCCCC1(CCCC)CS(=O)(=O)c2ccc(N(C)C)cc2[C@@H](c2ccc(OCCC[N+]34CCN(CC3)CC4)cc2)[C@H]1O [Example 1407, (4R-cis)-1-[3-[4-[3,3-Dibutyl-7-(dimethylamino)-2,3,4,5-tetrahydro-4-hydroxy-1,1-dioxido-1-benzothiepin-5-yl]phenoxy]propyl]-4-aza-1-azoniabicyclo[2.2.2]octane, 4-methylbenzenesulfonate (Salt)] | 51.9 micromoles fecal bile acid per day and 35 micromoles fecal bile acid per day | – | – | – |
| CCCCC1(CCCC)CS(=O)(=O)c2ccc(N(C)C)cc2[C@@H](c2ccc(OCCCC[N+]34CCN(CC3)CC4)cc2)[C@H]1O.CS(=O)(=O)[O-] [Example 1408, (4R-cis)-1-[4-[4-[3,3-Dibutyl-7-(dimethylamino)-2,3,4,5-tetrahydro-4-hydroxy-1,1-dioxido-1-benzothiepin-5-yl]phenoxy]butyl]-4-aza-1-azoniabicyclo [2.2.2]octanemethanesulfonate (Salt)] | 41.2 micromoles fecal bile acid per day and 26.2 micromoles fecal bile acid per day | 16.8 micromoles fecal bile acid per day and 26.3 micromoles fecal bile acid per day | 36.8 micromoles fecal bile acid per day and 45.2 micromoles fecal bile acid per day | – |
| CCCCC1(CCCC)CS(=O)(=O)c2ccc(N(C)C)cc2[C@@H](c2ccc(OCCCC[N+]34CCN(CC3)CC4)cc2)[C@H]1O [Example 1409, (4R-cis)-1-[4-[4-[3,3-Dibutyl-7-(dimethylamino)-2,3,4,5-tetrahydro-4-hydroxy-1,1-dioxido-1-benzothiepin-5-yl]phenoxy]butyl]-4-aza-1-azoniabicyclo[2.2.2]octane-4-methylbenzenesulfonate (Salt)] | – | 14.1 micromoles fecal bile acid per day and 14.5 micromoles fecal bile acid per day | 28.7 micromoles fecal bile acid per day and 35.9 micromoles fecal bile acid per day | – |
| CCCCC1(CCCC)CS(=O)(=O)c2ccc(N(C)C)cc2[C@@H](c2ccc(OCc3ccc(C[n+]4ccccc4)cc3)cc2)[C@H]1O.[Cl-] [Example 1425, (4R-cis)-1-[[4-[[4-[3,3-Dibutyl-7-(dimethylamino)-2,3,4,5-tetrahydro-4-hydroxy-1,1-dioxido-1-benzothiepin-5-yl]phenoxy]methyl]phenyl]methyl]-pyridinium chloride] | 44.6 micromoles fecal bile acid per day and 48.3 micromoles fecal bile acid per day | – | 62 micromoles fecal bile acid per day and 45 micromoles fecal bile acid per day | 31.6 micromoles fecal bile acid per day and 30 micromoles fecal bile acid per day |
| CCCCC1(CCCC)CS(=O)(=O)c2ccc(N(C)C)cc2[C@@H](c2ccc(OCc3ccc(C[N+]45CCN(CC4)CC5)cc3)cc2)[C@H]1O.[Cl-] [Example 1426, (4R-cis)-1-[[4-[[4-[3,3-Dibutyl-7-(dimethylamino)-2,3,4,5-tetrahydro-4-hydroxy-1,1-dioxido-1-benzothiepin-5-yl]phenoxy]methyl]phenyl]methyl]-4-aza-1-azoniabicyclo[2.2.2]octane chloride] | 52.4 micromoles fecal bile acid per day and 37.7 micromoles fecal bile acid per day and 54.3 micromoles fecal bile acid per day and 40.8 micromoles fecal bile acid per day | – | – | – |
| CCCCC1(CCCC)CS(=O)(=O)c2ccc(N(C)C)cc2[C@@H](c2ccc(OCc3cc[n+](C)cc3)cc2)[C@H]1O [Example 1428, (4R-cis)-4-[[4-[3,3-Dibutyl-7-(dimethylamino)-2,3,4,5-tetrahydro-4-hydroxy-1,1-dioxido-1,1-dioxido-1-benzothiepin-5-yl]phenoxy]methyl]-1-methylpyridinium salt with trifluoroacetic acid (1:1)] | 40.4 micromoles fecal bile acid per day and 46 micromoles fecal bile acid per day | 24.4 micromoles fecal bile acid per day and 26 micromoles fecal bile acid per day | 64.9 micromoles fecal bile acid per day and 40.7 micromoles fecal bile acid per day | – |
| CCCCC1(CCCC)CS(=O)(=O)c2ccc(N(C)C)cc2[C@@H](c2ccc(OCc3cc[n+](C)cc3)cc2)[C@H]1O [Example 1429, (4R-cis)-4-[[4-[3,3-Dibutyl-7-(dimethylamino)-2,3,4,5-tetrahydro-4-hydroxy-1,1-dioxido-1,1-dioxido-1-benzothiepin-5-yl]phenoxy]methyl]-1-methylpyridinium, methanesulfonate (salt)] | 34.5 micromoles fecal bile acid per day and 47.1 micromoles fecal bile acid per day | 18.7 micromoles fecal bile acid per day and 35.5 micromoles fecal bile acid per day | 24.9 micromoles fecal bile acid per day and 31.1 micromoles fecal bile acid per day | 9.2 micromoles fecal bile acid per day and 4.8 micromoles fecal bile acid per day |
